Assay results from the supplement of paper PMC9588766.
Counter-ions that a name gives are not always drawn. ± gives the standard deviation of the averaged measurements. Over roughly 2,000 compounds, “cell viability relative to DMSO control (compound alone)” has its median near 0.98; the lowest 2% begin near 0.23. This is one part of the list.

Test system: PDC-DUC18828
Experiment: cell viability relative to DMSO control (compound alone) (fraction); PDC-DUC18828 is a patient-derived cholangiocarcinoma cell line; higher = less growth inhibition
Settings: 1 µM; 72 h
Procedure: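 Selleck Bioactive library screen in the patient-derived FGFR2-G3BP2 fusion-positive ICC cell line PDC-DUC18828 (500 cells/well). Each compound was tested at 1 uM alone, in triplicate, for 72 h. Viability was read by CellTiter-Glo and normalised to plate DMSO controls.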

Structure (SMILES)	cell viability
NCCCCCNCC12CC3CC(CC(C3)C1)C2 [IEM 1754 dihydrobroMide]	0.91 ± 0.019
COc1c(N2C[C@@H]3CCCN[C@@H]3C2)c(F)cc2c(=O)c(C(=O)O)cn(C3CC3)c12 [Moxifloxacin HCl]	1.07 ± 0.018
CC1(C)CCC[C@]2(C)[C@H]3CC(=O)O[C@]3(C)CC[C@@H]12 [Sclareolide]	0.999 ± 0.029
CC(=O)OCC(=O)[C@@]1(O)[C@H](C)C[C@H]2[C@@H]3CCC4=CC(=O)C=C[C@]4(C)[C@@]3(F)[C@@H](O)C[C@@]21C [Dexamethasone Acetate]	0.985 ± 0.0097
COc1ccc(C(=O)CC(=O)c2ccc(C(C)(C)C)cc2)cc1 [Avobenzone]	0.914 ± 0.027
Nc1nc2c(ncn2COCCO)c(=O)[nH]1 [Aciclovir]	0.947 ± 0.021
COc1ccc2[nH]c([S@@+]([O-])Cc3ncc(C)c(OC)c3C)nc2c1 [Esomeprazole Sodium]	0.929 ± 0.023
COc1ccc2[nH]c([S@@+]([O-])Cc3ncc(C)c(OC)c3C)nc2c1 [Esomeprazole Magnesium]	0.997 ± 0.049
Cc1cc(N2CCOCC2)cc2[nH]c(-c3c(NC[C@@H](O)c4cccc(Cl)c4)cc[nH]c3=O)nc12	0.71 ± 0.025
CC(C)NCC(O)c1ccc(O)c(O)c1 (stereo not drawn) [Isoprenaline HCl]	0.978 ± 0.037
CS(=O)(=O)N1CCN(Cc2cc3nc(-c4cccc5[nH]ncc45)nc(N4CCOCC4)c3s2)CC1	0.921 ± 0.039
COc1cc(F)c(F)c(Nc2ccc(I)cc2F)c1NS(=O)(=O)C1(C[C@H](O)CO)CC1 [Refametinib (RDEA119, Bay 86-9766)]	0.906 ± 0.025
C#C[C@]1(O)CC[C@H]2[C@@H]3CCc4cc(O)ccc4[C@H]3CC[C@@]21C [Ethinyl Estradiol]	1.06 ± 0.032
O=S(=O)(c1ccccc1)N(CC(F)(F)F)c1ccc(C(O)(C(F)(F)F)C(F)(F)F)cc1	0.939 ± 0.017
CC#CC(=O)Nc1ccc2ncnc(Nc3cccc(Br)c3)c2c1	0.615 ± 0.024
O=C(O)c1ccc(N2C(=O)/C(=C\c3ccc(-c4ccc([N+](=O)[O-])cc4)o3)C=C2c2ccccc2)cc1	0.942 ± 0.083
CCOC(=O)C1=C(C)NC(C)=C(C(=O)OCC)C1c1ccccc1/C=C/C(=O)OC(C)(C)C [Lacidipine]	1.04 ± 0.048
O=C(O)C(Cc1c[nH]c2ccccc12)N1C(=O)c2ccccc2C1=O (stereo not drawn)	0.933 ± 0.01
CCOc1cc(CC(=O)N[C@@H](CC(C)C)c2ccccc2N2CCCCC2)ccc1C(=O)O [Repaglinide]	1.07 ± 0.037

Structure (SMILES)	cell viability
CCOC(=O)c1ncn2c1CN(C)C(=O)c1cc(F)ccc1-2 [Flumazenil]	1 ± 0.085
CC1=C(C(=O)Nc2cc3cn[nH]c3cc2F)C(c2ccc(C(F)(F)F)cc2)CC(=O)N1 (stereo not drawn)	1.05 ± 0.059
CNC(=O)c1ccccc1Nc1nc(Nc2ccc(N3CCOCC3)cc2OC)ncc1Cl	0.718 ± 0.036
Cc1cc(C)c2c(c1)[C@@H](N(Cc1cc(C(F)(F)F)cc(C(F)(F)F)c1)c1nnn(C)n1)CCCN2C[C@H]1CC[C@H](C(=O)O)CC1	0.941 ± 0.038
CCCCN(Cc1ccc(C(=O)NO)cc1)C(=O)Nc1ccccc1 [Nexturastat A]	0.942 ± 0.033
COC(=O)N[C@H](C(=O)N1CCC[C@H]1c1ncc(-c2ccc(-c3ccc(-c4cnc([C@@H]5CCCN5C(=O)[C@@H](NC(=O)OC)C(C)C)[nH]4)cc3)cc2)[nH]1)C(C)C	0.914 ± 0.013
CC(C(=O)O)c1cccc(C(=O)c2ccccc2)c1 (stereo not drawn) [Ketoprofen]	1.043 ± 0.0072
c1cc(-c2cnn3cc(-c4ccc(N5CCNCC5)cc4)cnc23)c2cccnc2c1	0.899 ± 0.061
NCCCC[C@@H]1NC(=O)[C@@H](Cc2ccccc2)NC(=O)[C@H](CC(=O)O)NC(=O)CNC(=O)[C@H](CCCN=C(N)N)NC1=O [Cyclo (-RGDfK)]	1.03 ± 0.035
CCCC1O[C@@H]2C[C@H]3[C@@H]4CCC5=CC(=O)C=C[C@]5(C)[C@H]4[C@@H](O)C[C@]3(C)[C@]2(C(=O)CO)O1 (stereo partly drawn) [Budesonide]	0.966 ± 0.068
CNC(=O)[C@@H](c1ccccc1)N1CCc2cc(OC)c(OC)cc2[C@@H]1CCc1ccc(C(F)(F)F)cc1 [Almorexant HCl]	1.03 ± 0.039
COc1cc(C(C)=O)ccc1OCCCN1CCC(c2noc3cc(F)ccc23)CC1 [Iloperidone]	1.04 ± 0.03
COc1ccc(/C=C\c2cc(OC)c(OC)c(OC)c2)cc1O [Combretastatin A4]	0.285 ± 0.005
CN1C(CCl)Nc2cc(Cl)c(S(N)(=O)=O)cc2S1(=O)=O (stereo not drawn) [Methyclothiazide]	1.09 ± 0.033
C=CC1=C(C(=O)O)N2C(=O)[C@@H](NC(=O)/C(=N\O)c3csc(N)n3)[C@H]2SC1 [Cefdinir]	1.08 ± 0.071
OCc1ccccc1O[C@@H]1O[C@H](CO)[C@@H](O)[C@H](O)[C@H]1O [Salicin]	0.971 ± 0.011
C=C1CC[C@@H]2[C@](C)(CO)[C@H](O)CC[C@@]2(C)[C@@H]1C/C=C1/C(=O)OC[C@H]1O [Andrographolide]	1 ± 0.024
CC(=O)NS(=O)(=O)c1ccc(N)cc1 [Sulfacetamide Sodium]	0.994 ± 0.034
Cc1cn([C@H]2C=C[C@@H](CO)O2)c(=O)[nH]c1=O [Stavudine (d4T)]	0.969 ± 0.021
